Test results published in paper PMC4081100.
Only a part is listed here, and it is no random draw. For some assays here: At the low end of the ranking the order means little. Some of the results follow. For some assays here: The exact form of the protein is not confirmed.

Experiments:
Experiment in all cases: universal protein binding microarray (PBM)
Conditions in all cases: transcription factors of Arabidopsis thaliana; high values mean tight binding; most listed sequences are background and not binding sites; double strand, one strand shown
GST-ATAF1 NAC domain = biological target: T1, GST-ATAF1 NAC domain (UniProt Q39013)
T1 sequence: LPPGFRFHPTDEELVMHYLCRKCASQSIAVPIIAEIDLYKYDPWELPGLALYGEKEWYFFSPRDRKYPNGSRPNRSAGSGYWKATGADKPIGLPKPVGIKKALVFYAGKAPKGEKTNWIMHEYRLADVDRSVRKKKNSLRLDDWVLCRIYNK

GST-NST2(1-184) = biological target: T2, GST-NST2(1-184) (UniProt Q9M274)
T2 sequence: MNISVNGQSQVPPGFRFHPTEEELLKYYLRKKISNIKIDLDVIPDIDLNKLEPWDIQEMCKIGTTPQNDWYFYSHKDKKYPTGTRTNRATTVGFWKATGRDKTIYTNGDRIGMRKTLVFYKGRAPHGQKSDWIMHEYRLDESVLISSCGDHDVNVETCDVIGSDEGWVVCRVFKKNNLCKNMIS

[1] = biological target: T3, GST-VOZ2 (Arabidopsis thaliana) (UniProt Q9SLB9)
T3 sequence: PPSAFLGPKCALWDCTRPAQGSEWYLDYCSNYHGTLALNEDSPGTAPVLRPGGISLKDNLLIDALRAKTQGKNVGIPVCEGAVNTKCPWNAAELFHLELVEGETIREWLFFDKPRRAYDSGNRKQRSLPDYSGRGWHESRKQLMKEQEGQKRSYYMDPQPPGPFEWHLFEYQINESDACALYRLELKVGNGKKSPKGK

GST-WRKY1(266-371) = GST-WRKY1(266-371) (UniProt Q9SI37)
GST-NTL6(1-168) = GST-NTL6(1-168) (UniProt Q9SCK6)
[2] = biological target: T4, GST-ANAC092(1-285) full length (UniProt Q9FKA0)
T4 sequence: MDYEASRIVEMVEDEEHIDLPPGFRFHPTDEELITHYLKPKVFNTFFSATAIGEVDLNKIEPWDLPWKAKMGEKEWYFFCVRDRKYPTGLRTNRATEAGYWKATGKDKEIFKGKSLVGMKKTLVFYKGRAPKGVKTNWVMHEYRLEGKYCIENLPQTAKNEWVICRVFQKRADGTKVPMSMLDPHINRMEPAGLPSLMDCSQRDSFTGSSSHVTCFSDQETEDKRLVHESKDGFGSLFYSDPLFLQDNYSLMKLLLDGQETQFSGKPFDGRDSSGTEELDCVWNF

GST-NAP(1-166) = biological target: T5, GST-NAP(1-166) (UniProt O49255)
T5 sequence: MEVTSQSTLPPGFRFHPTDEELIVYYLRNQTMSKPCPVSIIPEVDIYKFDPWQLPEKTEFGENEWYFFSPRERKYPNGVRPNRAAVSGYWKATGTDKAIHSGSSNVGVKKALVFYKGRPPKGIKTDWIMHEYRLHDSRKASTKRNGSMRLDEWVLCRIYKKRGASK

GST-NTL8 NAC domain = biological target: T6, GST-NTL8 NAC domain (UniProt Q9XIN7)
T6 sequence: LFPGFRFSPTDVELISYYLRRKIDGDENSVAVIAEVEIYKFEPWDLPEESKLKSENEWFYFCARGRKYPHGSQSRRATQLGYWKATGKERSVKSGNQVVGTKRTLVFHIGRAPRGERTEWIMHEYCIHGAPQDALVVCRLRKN

GST-ANAC019 NAC domain = biological target: T7, GST-ANAC019 NAC domain (UniProt Q9C932)
T7 sequence: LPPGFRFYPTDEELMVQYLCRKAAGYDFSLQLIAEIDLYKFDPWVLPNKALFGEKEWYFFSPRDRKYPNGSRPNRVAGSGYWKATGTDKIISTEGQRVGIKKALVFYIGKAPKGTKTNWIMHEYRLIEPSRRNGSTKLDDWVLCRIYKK

GST-ANAC092(1-176) = biological target: T8, GST-ANAC092(1-176) (UniProt Q9FKA0)
T8 sequence: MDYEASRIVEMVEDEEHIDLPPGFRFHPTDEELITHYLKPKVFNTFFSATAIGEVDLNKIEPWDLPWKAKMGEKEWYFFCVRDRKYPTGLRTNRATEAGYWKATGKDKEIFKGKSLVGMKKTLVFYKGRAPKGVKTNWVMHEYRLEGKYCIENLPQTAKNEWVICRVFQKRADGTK

GST-ANAC055(1-171) = biological target: T9, GST-ANAC055(1-171) (UniProt Q9LDY8)
T9 sequence: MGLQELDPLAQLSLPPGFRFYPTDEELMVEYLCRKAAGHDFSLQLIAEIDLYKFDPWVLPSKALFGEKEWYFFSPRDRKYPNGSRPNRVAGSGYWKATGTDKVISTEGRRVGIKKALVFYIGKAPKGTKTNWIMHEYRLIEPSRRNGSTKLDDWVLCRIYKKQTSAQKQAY

Sequence: GCGTATAA
- binding signal (GST-ATAF1 NAC domain): 0.229 E-score
- binding signal (GST-NST2(1-184)): 0.285 E-score
- binding signal [1]: 0.155 E-score
- binding signal (GST-WRKY1(266-371)): -0.105 E-score

Sequence: CAACACGC
- binding signal (GST-NTL6(1-168)): 0.0229 E-score
- binding signal (GST-NST2(1-184)): 0.229 E-score
- binding signal [1]: -0.0588 E-score

Sequence: AAGTAAGT
- binding signal [2]: 0.259 E-score
- binding signal (GST-NAP(1-166)): 0.135 E-score
- binding signal (GST-NTL8 NAC domain): 0.267 E-score
- binding signal [1]: 0.0851 E-score
- binding signal (GST-WRKY1(266-371)): 0.2 E-score

Sequence: CTTGCGTA
- binding signal (GST-NTL6(1-168)): 0.0265 E-score
- binding signal (GST-ANAC019 NAC domain): 0.382 E-score
- binding signal (GST-NST2(1-184)): 0.332 E-score
- binding signal [1]: 0.0472 E-score

Sequence: ACGGAAGC
- binding signal (GST-NTL8 NAC domain): 0.0402 E-score
- binding signal [1]: 0.0581 E-score
- binding signal (GST-WRKY1(266-371)): -0.0309 E-score

Sequence: GTAAGTCA
- binding signal (GST-ANAC092(1-176)): 0.109 E-score
- binding signal (GST-NTL6(1-168)): 0.283 E-score
- binding signal (GST-ANAC019 NAC domain): 0.134 E-score
- binding signal (GST-ANAC055(1-171)): 0.228 E-score
- binding signal (GST-ATAF1 NAC domain): 0.238 E-score
- binding signal (GST-NTL8 NAC domain): -0.0311 E-score
- binding signal [1]: 0.125 E-score

Sequence: GATTGACC
- binding signal (GST-NTL6(1-168)): 0.0275 E-score
- binding signal (GST-ANAC019 NAC domain): -0.0933 E-score
- binding signal (GST-ANAC055(1-171)): 0.0576 E-score
- binding signal (GST-ATAF1 NAC domain): -0.0274 E-score
- binding signal (GST-NAP(1-166)): -0.186 E-score
- binding signal (GST-NST2(1-184)): 0.0322 E-score
- binding signal (GST-NTL8 NAC domain): 0.017 E-score
- binding signal [1]: 0.0949 E-score

Sequence: CACGAAAG
- binding signal (GST-ANAC092(1-176)): 0.407 E-score
- binding signal (GST-NTL6(1-168)): 0.109 E-score
- binding signal (GST-ANAC019 NAC domain): 0.25 E-score
- binding signal [2]: 0.411 E-score
- binding signal (GST-NTL8 NAC domain): 0.121 E-score
- binding signal [1]: 0.037 E-score

Sequence: TCACGCAA
- binding signal (GST-ANAC092(1-176)): 0.488 E-score
- binding signal (GST-ANAC019 NAC domain): 0.467 E-score
- binding signal (GST-NST2(1-184)): 0.396 E-score
- binding signal [1]: 0.181 E-score

Sequence: ACACGACA
- binding signal (GST-ATAF1 NAC domain): 0.339 E-score
- binding signal (GST-NAP(1-166)): 0.36 E-score
- binding signal [1]: -0.0573 E-score
- binding signal (GST-WRKY1(266-371)): 0.0821 E-score

Sequence: TCACGTCA
- binding signal (GST-NTL6(1-168)): -0.07 E-score
- binding signal (GST-ANAC055(1-171)): 0.354 E-score
- binding signal (GST-NST2(1-184)): 0.188 E-score
- binding signal (GST-NTL8 NAC domain): -0.0823 E-score
- binding signal [1]: 0.0745 E-score

Sequence: ACTAAGTA
- binding signal (GST-NTL6(1-168)): 0.429 E-score
- binding signal (GST-NTL8 NAC domain): 0.116 E-score
- binding signal [1]: 0.0484 E-score
